Binding signal data for 20 molecules are collected here from paper PMC9911399, “Two distinct binding modes provide the RNA-binding protein RbFox with extraordinary sequence specificity”.

Positions count from the first letter of the chain named. Some of the results follow.

To fix the notation:
B1: ACUACCU (DNA:RNA)
RNA: GGGAGACCGGAAUUCAGAUUGUCCACUACCUUUAAAUCCCGUCGUAGCCACCA
DNA 1: CAATCTGAATTCCGGTCTCCC
DNA 2: TGGTGGCTACGACGGGATT
B2: CCUUUUU (DNA:RNA)
RNA: B1 RNA with A25C, A28U, C29U, C30U
DNA 1: CAATCTGAATTCCGGTCTCCC
DNA 2: TGGTGGCTACGACGGGATT
B3: UCCUGAA (DNA:RNA)
RNA: B1 RNA with A25U, U27C, A28U, C29G, C30A, U31A
DNA 1: CAATCTGAATTCCGGTCTCCC
DNA 2: TGGTGGCTACGACGGGATT
B4: GAAUCCC (DNA:RNA)
RNA: B1 RNA with A25G, C26A, U27A, A28U, U31C
DNA 1: CAATCTGAATTCCGGTCTCCC
DNA 2: TGGTGGCTACGACGGGATT
B5: CUCGGAA (DNA:RNA)
RNA: GGGAGACCGGAAUUCAGAUUGUCCCUCGGAAUUAAAUCCCGUCGUAGCCACCA
DNA 1: CAATCTGAATTCCGGTCTCCC
DNA 2: TGGTGGCTACGACGGGATT
B6: GUGCAGA (DNA:RNA)
RNA: B5 RNA with C25G, C27G, G28C, G29A, A30G
DNA 1: CAATCTGAATTCCGGTCTCCC
DNA 2: TGGTGGCTACGACGGGATT
B7: GCCGGGG (DNA:RNA)
RNA: B5 RNA with C25G, U26C, A30G, A31G
DNA 1: CAATCTGAATTCCGGTCTCCC
DNA 2: TGGTGGCTACGACGGGATT
B8: UCAUCAA (DNA:RNA)
RNA: B1 RNA with A25U, U27A, A28U, C30A, U31A
DNA 1: CAATCTGAATTCCGGTCTCCC
DNA 2: TGGTGGCTACGACGGGATT
B9: GUUGUCA (DNA:RNA)
RNA: B5 RNA with C25G, C27U, G29U, A30C
DNA 1: CAATCTGAATTCCGGTCTCCC
DNA 2: TGGTGGCTACGACGGGATT
B10: CAAUCGU (DNA:RNA)
RNA: B1 RNA with A25C, C26A, U27A, A28U, C30G
DNA 1: CAATCTGAATTCCGGTCTCCC
DNA 2: TGGTGGCTACGACGGGATT
B11: GGUUUUG (DNA:RNA)
RNA: B1 RNA with A25G, C26G, A28U, C29U, C30U, U31G
DNA 1: CAATCTGAATTCCGGTCTCCC
DNA 2: TGGTGGCTACGACGGGATT
B12: GGCCACC (DNA:RNA)
RNA: B1 RNA with A25G, C26G, U27C, A28C, C29A, U31C
DNA 1: CAATCTGAATTCCGGTCTCCC
DNA 2: TGGTGGCTACGACGGGATT
B13: GAAACAU (DNA:RNA)
RNA: B1 RNA with A25G, C26A, U27A, C30A
DNA 1: CAATCTGAATTCCGGTCTCCC
DNA 2: TGGTGGCTACGACGGGATT
B14: CGUCGGU (DNA:RNA)
RNA: B1 RNA with A25C, C26G, A28C, C29G, C30G
DNA 1: CAATCTGAATTCCGGTCTCCC
DNA 2: TGGTGGCTACGACGGGATT
B15: GGUCCAA (DNA:RNA)
RNA: B1 RNA with A25G, C26G, A28C, C30A, U31A
DNA 1: CAATCTGAATTCCGGTCTCCC
DNA 2: TGGTGGCTACGACGGGATT
B16: AACAAGU (DNA:RNA)
RNA: B1 RNA with C26A, U27C, C29A, C30G
DNA 1: CAATCTGAATTCCGGTCTCCC
DNA 2: TGGTGGCTACGACGGGATT
B17: AUAAGAU (DNA:RNA)
RNA: B1 RNA with C26U, U27A, C29G, C30A
DNA 1: CAATCTGAATTCCGGTCTCCC
DNA 2: TGGTGGCTACGACGGGATT
B18: GGAUCGU (DNA:RNA)
RNA: B1 RNA with A25G, C26G, U27A, A28U, C30G
DNA 1: CAATCTGAATTCCGGTCTCCC
DNA 2: TGGTGGCTACGACGGGATT
B19: UUAUGCA (DNA:RNA)
RNA: B5 RNA with C25U, C27A, G28U, A30C
DNA 1: CAATCTGAATTCCGGTCTCCC
DNA 2: TGGTGGCTACGACGGGATT
B20: ACGAGCC (DNA:RNA)
RNA: B1 RNA with U27G, C29G, U31C
DNA 1: CAATCTGAATTCCGGTCTCCC
DNA 2: TGGTGGCTACGACGGGATT

The target of the test is T1, RBFOX1 RRM RbFoxmut (Fox-RRM*) (Homo sapiens, UniProt Q9NWB1 109-208, R118D;E147R;N151S;E152T).
T1 sequence: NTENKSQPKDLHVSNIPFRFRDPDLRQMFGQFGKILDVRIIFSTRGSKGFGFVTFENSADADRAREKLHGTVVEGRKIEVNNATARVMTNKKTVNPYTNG
Description: EMSA; HiTS-Eq, 1 nM pool, 10 min; buffer printed only for the single-RNA assays: 10 mM Tris pH 7.5, 150 mM NaCl, 3.4 mM EDTA, 0.001% NP-40, 30 C. The note with it: tags: His6 N-terminal (pET28a); label: 5' 32P. In short, it runs like this: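 Purified wild-type or mutant RbFox RRM at increasing concentrations was equilibrated with 1 nM of 5′-radiolabelled RNA carrying 7 randomized nucleotides for 10 min in 50 µL. Unbound RNA was separated by 8% native PAGE and sequenced. Relative association constants came from read-count changes of each RNA species compared with the control reaction, normalised to the cognate motif.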
In the case of B1, the binding signal was 0.0797 KA relative to UGCAUGU.
As to B2, the binding signal is 0.0758 KA relative to UGCAUGU.
Turning to B3, the binding signal is 0.0821 KA relative to UGCAUGU.
In the case of B4, the binding signal was 0.0694 KA relative to UGCAUGU.
Regarding B5, the binding signal is 0.0897 KA relative to UGCAUGU.
On to B6, for which the binding signal is 0.12 KA relative to UGCAUGU.
In the case of B7 it was 0.0837 KA relative to UGCAUGU; in that of B8, 0.077 KA relative to UGCAUGU.
With B9, the binding signal was 0.115 KA relative to UGCAUGU.
In the case of B10 it was 0.0684 KA relative to UGCAUGU.
Regarding B11, the binding signal was 0.191 KA relative to UGCAUGU.
For the molecule B12, the binding signal was 0.0497 KA relative to UGCAUGU.
B13: the binding signal is 0.0964 KA relative to UGCAUGU.
Turning to B14, the binding signal is 0.142 KA relative to UGCAUGU.
Regarding B15, the binding signal is 0.0995 KA relative to UGCAUGU.
As to B16, the binding signal was 0.0525 KA relative to UGCAUGU.
For B17, the binding signal was 0.0909 KA relative to UGCAUGU.
With B18, the binding signal is 0.354 KA relative to UGCAUGU.
Turning to B19, the binding signal is 0.192 KA relative to UGCAUGU.
With B20 the figure was 0.113 KA relative to UGCAUGU.
